Laboratory results: the supplement of paper PMC10724272

compound: C[C@@H]1[C@H](O)[C@@H](C)/C=C/C=C/C=C/C=C/C=C/C=C/C=C/[C@H](O[C@@H]2O[C@H](C)[C@@H](O)[C@H](N)[C@@H]2O)C[C@@H]2O[C@](O)(C[C@@H](O)C[C@@H](O)[C@H](O)CC[C@@H](O)C[C@@H](O)CC(=O)O[C@H]1C)C[C@H](O)[C@H]2C(=O)O [amphotericin B]; assay: CLSI broth microdilution.

Test System | MIC
Candida tropicalis isolate 259 (ERG11 copies: 4, Erg11p: Y132F, S154F (heterozygous)) | 1 mg/L [S]
Candida tropicalis isolate 254 (ERG11 copies: 2, Erg11p: no key change) | 1 mg/L [S]
Candida tropicalis isolate 325 (ERG11 copies: 2, Erg11p: no key change) | 0.5 mg/L [S]
Candida tropicalis isolate 376 (ERG11 copies: 2, Erg11p: no key change) | 0.5 mg/L [S]
Candida tropicalis isolate 393 (ERG11 copies: 2, Erg11p: no key change) | 0.5 mg/L [S]
Candida tropicalis isolate 96 (ERG11 copies: 2, Erg11p: no key change) | 0.5 mg/L [S]
Candida tropicalis isolate 403 (ERG11 copies: 2, Erg11p: no key change) | 1 mg/L [S]
Candida tropicalis isolate 191 (ERG11 copies: 2, Erg11p: no key change) | 1 mg/L [S]
Candida tropicalis isolate 174 (ERG11 copies: 2, Erg11p: no key change) | 0.5 mg/L [S]

compound: CC[C@H](C)C[C@H](C)CCCCCCCCC(=O)N[C@H]1C[C@@H](O)[C@@H](NCCN)NC(=O)[C@@H]2[C@@H](O)CCN2C(=O)[C@H]([C@H](O)CCN)NC(=O)[C@H]([C@H](O)[C@@H](O)c2ccc(O)cc2)NC(=O)[C@@H]2C[C@@H](O)CN2C(=O)[C@H]([C@@H](C)O)NC1=O [caspofungin]; assay: CLSI broth microdilution.

Test System | MIC
Candida tropicalis isolate 383 (ERG11 copies: 2, Erg11p: no key change) | 0.03 mg/L [S]
Candida tropicalis isolate 305 (ERG11 copies: 2, Erg11p: no key change) | 0.03 mg/L [S]
Candida tropicalis isolate 35 (ERG11 copies: 2, Erg11p: no key change) | 0.12 mg/L [S]
Candida tropicalis isolate 399 (ERG11 copies: 2, Erg11p: no key change) | 0.03 mg/L [S]
Candida tropicalis isolate 106 (ERG11 copies: 2, Erg11p: no key change) | 0.06 mg/L [S]
Candida tropicalis isolate 322 (ERG11 copies: 2, Erg11p: no key change) | 0.015 mg/L [S]
Candida tropicalis isolate 178 (ERG11 copies: 2, Erg11p: no key change) | 0.03 mg/L [S]
Candida tropicalis isolate 223 (ERG11 copies: 8, Erg11p: Y132F, S154F (heterozygous)) | 0.03 mg/L [S]
Candida tropicalis isolate 197 (ERG11 copies: 2, Erg11p: no key change) | 0.03 mg/L [S]
Candida tropicalis isolate 66 (ERG11 copies: 2, Erg11p: Y132F, S154F (heterozygous)) | 0.03 mg/L [S]
Candida tropicalis isolate 120 (ERG11 copies: 2, Erg11p: no key change) | 0.03 mg/L [S]
Candida tropicalis isolate 73 (ERG11 copies: 2, Erg11p: no key change) | 0.03 mg/L [S]
Candida tropicalis isolate 105 (ERG11 copies: 2, Erg11p: no key change) | 0.03 mg/L [S]
Candida tropicalis isolate 396 (ERG11 copies: 2, Erg11p: Y132F, S154F (heterozygous)) | 0.03 mg/L [S]
Candida tropicalis isolate 251 (ERG11 copies: 2, Erg11p: no key change) | 0.06 mg/L [S]
Candida tropicalis isolate 87 (ERG11 copies: 7, Erg11p: Y132F, S154F (heterozygous)) | 0.03 mg/L [S]

Test System | MIC
Candida tropicalis isolate 438 (ERG11 copies: 2, Erg11p: Y132F, S154F (heterozygous)) | 0.03 mg/L [S]
Candida tropicalis isolate 445 (ERG11 copies: 5, Erg11p: Y132F, S154F (heterozygous)) | 0.06 mg/L [S]
Candida tropicalis isolate 34 (ERG11 copies: 5, Erg11p: Y132F, S154F (heterozygous)) | 0.25 mg/L [S]
Candida tropicalis isolate 107 (ERG11 copies: 7, Erg11p: Y132F, S154F (heterozygous)) | 0.03 mg/L [S]
Candida tropicalis isolate 439 (ERG11 copies: 2, Erg11p: no key change) | 0.03 mg/L [S]
Candida tropicalis isolate 159 (ERG11 copies: 2, Erg11p: no key change) | 0.25 mg/L [S]
Candida tropicalis isolate 142 (ERG11 copies: 2, Erg11p: no key change) | 0.5 µg/mL
Candida tropicalis isolate 331 (ERG11 copies: 2, Erg11p: no key change) | 0.06 mg/L [S]
Candida tropicalis isolate 327 (ERG11 copies: 2, Erg11p: no key change) | 0.06 mg/L [S]
Candida tropicalis isolate 384 (ERG11 copies: 2, Erg11p: no key change) | 0.03 mg/L [S]
Candida tropicalis isolate 356 (ERG11 copies: 2, Erg11p: no key change) | 0.03 mg/L [S]
Candida tropicalis isolate 259 (ERG11 copies: 4, Erg11p: Y132F, S154F (heterozygous)) | 0.03 mg/L [S]
Candida tropicalis isolate 254 (ERG11 copies: 2, Erg11p: no key change) | 0.03 mg/L [S]
Candida tropicalis isolate 325 (ERG11 copies: 2, Erg11p: no key change) | 0.03 mg/L [S]
Candida tropicalis isolate 376 (ERG11 copies: 2, Erg11p: no key change) | 0.06 mg/L [S]

MIC of invasive clinical C. tropicalis isolates, CLSI broth microdilution (fluconazole 0.12-256 mg/L, up to 1,024 for the azole-resistant cluster and its neighbour group; other ranges not stated); higher = less susceptible. Call: susceptible or wild type [S] / resistant or non-wild type [R] by CLSI breakpoints or cut-offs; intermediate and dose-dependent carry no call. '<=' and '>=' at the end values are inferred; the source marks only some of them. Isolates are numbered anew.
